Assay results as given in the supplement of paper PMC8183993.
Where a name gives a salt, the structure may show the parent alone. ± gives the standard deviation of the averaged measurements. The full ranking holds about 3,100 compounds; the median of “mean cytoplasmic OPP incorporation (global translation) relative to DMSO” is about 100, and the lowest 2% start at about 56. The list shows a part of the results.

Tested on: U2OS
Experiment: mean cytoplasmic OPP incorporation (global translation) relative to DMSO (% of DMSO); higher = more protein synthesis
Conditions: 10 µM; 24 h
Experimental: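 Primary image-based screen in U2OS cells: compounds at 10 uM for 24 h, then a 1 h o-propargyl-puromycin (OPP) pulse, click labelling, and high-throughput microscopy. Mean cytoplasmic OPP intensity and nuclei count were normalised to DMSO wells within each plate (DMSO = 100) and averaged over triplicate plates.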

Row | Structure (SMILES) | mean cytoplasmic OPP incorporation
1 | CC(=O)N1CCN(c2ccc(OCC3COC(Cn4ccnc4)(c4ccc(Cl)cc4Cl)O3)cc2)CC1 (configuration not stated) [Ketoconazole] | 114 ± 2.2
2 | CC1=C(C)C(=O)C(CCCCC#CCCCC#CCO)=C(C)C1=O | 101
3 | C#C[C@]1(O)CC[C@H]2[C@@H]3CCc4cc(OC)ccc4[C@H]3CC[C@@]21C [Ethynylestradiol 3-methyl ether] | 104
4 | C#C[C@]1(O)CC[C@H]2[C@@H]3CCc4cc(OC)ccc4[C@H]3CC[C@@]21C [Mestranol] | 103
5 | C1=N/C2=N/c3ccc(OCCN4CCCC4)c(c3)COC/C=C/COCc3cccc(c3)C(=C1)N2 [Pacritinib (SB1518)] | 73.3
6 | COc1cc(C=O)ccc1O [Vanillin] | 101
7 | CN(C)CCCCSC(=N)N | 99.4
8 | COc1ccc2cccc(CCNC(C)=O)c2c1 [Agomelatine] | 89.6
9 | CCCCCCCCCCCCCCCC[N+](C)(C)CCN(Cc1ccc(OC)cc1)c1ncccn1 [Thonzonium bromide] | 95.6
10 | O=C(O)P(=O)(O)O [Foscarnet Sodium] | 100
11 | CC(C)(C)NS(=O)(=O)c1cncc(-c2cc(F)c3nc(N)nn3c2)c1 | 103
12 | CCN(CC)CCCC(C)Nc1c2ccc(Cl)cc2nc2ccc(OC)cc12 (configuration not stated) [Quinacrine dihydrochloride dihydrate] | 29.5
13 | COC(=O)[C@H]1[C@H]2C[C@@H]3c4[nH]c5cc(OC)ccc5c4CCN3C[C@H]2C[C@@H](OC(=O)c2cc(OC)c(OC)c(OC)c2)[C@@H]1OC [Reserpine] | 101 ± 4.6
14 | COc1cc2c(cc1OC)-c1cc3ccc(OC)c(OC)c3c[n+]1CC2 [Palmatine chloride] | 94.4
15 | CNC(=C[N+](=O)[O-])NCCSCc1ccc(CN(C)C)o1 [Ranitidine hydrochloride] | 93.5 ± 16
16 | C=CCc1ccc(O)c(-c2ccc(O)c(CC=C)c2)c1 [Honokiol] | 102 ± 6.4
17 | CC(C)C[C@H](NC(=O)[C@@H](O)[C@H](N)Cc1ccccc1)C(=O)O [Bestatin] | 99.6
18 | CN(C)CCCSc1ccccc1NC(=O)/C=C/c1ccccc1 [Cinanserin hydrochloride] | 99.1
19 | CSc1cccc(Nc2ncc3cc(-c4c(Cl)cccc4Cl)c(=O)n(C)c3n2)c1 | 116
20 | OCc1ccc(-c2ccc(-c3ccc(CO)s3)o2)s1 | 87.7
21 | O=c1c(-c2ccc(O)cc2)coc2cc(O)cc(O)c12 [Genistein] | 100 ± 3.9

Row | Structure (SMILES) | mean cytoplasmic OPP incorporation
22 | CCOC(=O)Nc1ccc2c(c1)N(C(=O)CCN1CCOCC1)c1ccccc1S2 [Moricizine hydrochloride] | 95.6
23 | C[C@H](NC(=O)Cc1cc(F)cc(F)c1)C(=O)N[C@@H]1C(=O)N(C)c2ccccc2-c2ccccc21 | 117
24 | Clc1cc2c(NC3CCCC3)nnc(-c3ccncc3)c2cc1Cl | 114
25 | O=C(O)c1ccc(Nc2ncc3c(n2)-c2ccc(Cl)cc2C(c2c(F)cccc2F)=NC3)cc1 | 92.1 ± 2.5
26 | CC(=O)NNC(=O)N1Cc2ccccc2Oc2ccc(Cl)cc21 | 99.2
27 | OC1CCC(Nc2nc(-c3ccccc3)nc3[nH]ccc23)CC1 (configuration not stated) | 113
28 | N[C@@H]1CN(c2c(F)cc3c(=O)c(C(=O)O)cn([C@@H]4C[C@@H]4F)c3c2Cl)CC12CC2 [Sitafloxacin hydrate] | 100
29 | CNC[C@H](O)c1cccc(O)c1 [Phenylephrine HCl] | 101
30 | CCn1cc(-c2ccnc3[nH]c(-c4cccc(CN(C)C)c4)cc23)c(-c2ccc(NC(=O)N(C)C)cc2)n1 | 93
31 | CCOc1ccn(-c2ccc(F)cc2)c(=O)c1C(=O)Nc1ccc(Oc2ccnc(N)c2Cl)c(F)c1 | 104
32 | [Cl-].[Li+] [Lithium Chloride] | 105
33 | Cc1nc(Nc2n[nH]c3c2CN(C(=O)N[C@H](CN(C)C)c2ccccc2)C3(C)C)c2sccc2n1 | 45.5
34 | CCCCCCN(CCCCCC)C(=O)Cc1c(-c2ccc(F)cc2)[nH]c2ccccc12 | 109
35 | N#C[C@@H]1CCCN1C(=O)CNC12CC3CC(CC(O)(C3)C1)C2 [Vildagliptin (LAF-237)] | 102
36 | CC(C)C[C@H](NC(=O)CNC(=O)c1cc(Cl)ccc1Cl)B(O)O | 64.4
37 | O=C(O[C@@H]1Cc2c(O)cc(O)cc2O[C@@H]1c1cc(O)c(O)c(O)c1)c1cc(O)c(O)c(O)c1 [Epigallocatechin gallate] | 103 ± 8.2
38 | Nc1ccc(S(=O)(=O)NC(=O)c2ccccc2)cc1 [Sulfabenzamide] | 106
39 | C=C(CC)C(=O)c1ccc(OCC(=O)O)c(Cl)c1Cl [Ethacrynic acid] | 103
40 | CCCC[P+](CCCC)(CCCC)Cc1ccc(NC(=O)C(Cc2ccc3ccccc3c2)NC(=NC2CCCCC2)NC2CCCCC2)cc1 (configuration not stated) | 94.7
41 | CCCCCCCCCCCCCCCC(=O)O[C@H](CC(=O)O)C[N+](C)(C)C (racemic) [(±)-Palmitoylcarnitine chloride] | 104
42 | CCN(CC)CCCC(C)Nc1ccnc2cc(Cl)ccc12 (configuration not stated) [Chloroquine] | 107
